Experimental data from PubChem BioAssay AID1347043 (National Center for Advancing Translational Sciences (NCATS), 2019).
Among all 76,000 compounds or so, about 1,900 (2.5%) were called active. This list was built around the results that the source calls inconclusive (neither active nor inactive); the mix of calls is not that of the screen. The call rests on the fitted dose curve; in most records, active means well fitted inhibition curve with a large enough effect; inconclusive means small, poorly fitted or top-dose-only effect; inactive means flat fitted curve, though single readings scatter. A potency beside an inconclusive call is a rough fit, not a confirmed value.

target: Luciferin 4-monooxygenase (Photinus pyralis) (UniProt P08659); test: Firefly luciferase inhibition profiling of diverse chemical library using quantitative high-throughput screening; further: nearly all actives have a fitted effect of over 65% in size; settings: purified P. pyralis luciferase, luminescence, biochemical; activity change, negative = inhibition: at 115 µM (top of the series) unless noted
Sequence of UniProt P08659 (P08659 whole entry, looked up): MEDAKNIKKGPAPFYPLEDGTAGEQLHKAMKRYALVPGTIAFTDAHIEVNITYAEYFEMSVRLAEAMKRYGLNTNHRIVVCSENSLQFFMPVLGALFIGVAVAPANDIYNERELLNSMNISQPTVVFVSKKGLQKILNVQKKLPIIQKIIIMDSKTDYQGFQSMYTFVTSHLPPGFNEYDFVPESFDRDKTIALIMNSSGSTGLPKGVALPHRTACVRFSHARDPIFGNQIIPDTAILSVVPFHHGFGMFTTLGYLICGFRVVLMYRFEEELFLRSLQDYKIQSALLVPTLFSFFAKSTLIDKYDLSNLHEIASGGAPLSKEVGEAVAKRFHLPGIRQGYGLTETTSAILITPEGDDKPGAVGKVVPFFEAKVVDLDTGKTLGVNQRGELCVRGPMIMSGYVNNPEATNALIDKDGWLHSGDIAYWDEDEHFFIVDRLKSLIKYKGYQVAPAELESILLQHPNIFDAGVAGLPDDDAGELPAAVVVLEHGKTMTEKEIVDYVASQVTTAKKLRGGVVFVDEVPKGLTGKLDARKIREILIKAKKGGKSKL
Summary of the method: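 Luminescence read by CCD imager after adding enzyme (10nM final) to wells holding compound, titrated in qHTS. Substrates 10uM each D-luciferin and ATP; buffer 50mM Tris acetate pH 7.5, 10mM Mg acetate, Tween-20, BSA.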
On the % scale 0 is the no-effect control and ±100 the full control effect; potency means the concentration at half of the fitted maximal effect; tags describe the fitted curve by direction and shape.

Q: Which Potency does the source give for `O=C(c1ccc(-c2ccc(N3CCCCCC3)nc2)cc1)N1CCCC1` here?
A: inconclusive: 44.7 µM [inhibitor, partial curve]

Q: Which “activity change, negative = inhibition” value does the source give for `O=C(NC1CCCCC1)O[C@@H]1CO[C@H]2[C@@H]1OC[C@@H]2n1nnnc1Sc1ccccc1` here?
A: inactive: 6.84% [at 172 µM]

Q: Which Potency does the source give for `COc1ccccc1-c1ccc2ncc(Nc3cccc(O)c3)n2n1` here?
A: inconclusive: 63.1 µM [inhibitor, full curve]

Q: `O=C(c1ccoc1)N1CCc2onc(C(c3ccccc3)c3ccccc3)c2C1` was tested. Which Potency did it give?
A: inconclusive: 28.2 µM [inhibitor, full curve, poor fit]

Q: With `O=C1COC[C@H]([C@H](O)c2ccc(NC(=O)c3ccc(C(F)(F)F)cc3)cc2)N1` as the compound, how does the Potency read?
A: inconclusive: 126 µM [inhibitor, single point]

Q: For `COC(=O)c1cccc(NC(=O)c2cnc(-c3ccc(F)cc3)nc2-c2ccncc2)c1`, which “activity change, negative = inhibition” value is on record?
A: inactive: -4.81%

Q: For `COc1ccc(CCC(=O)N2CCCC(n3cc(-c4nc(-c5ccccc5)no4)nn3)C2)cc1` (stereo unspecified), which Potency is on record?
A: inconclusive: 89.1 µM [inhibitor, single point]

Q: Which Potency does the source give for `O=C(Nc1ccc2c(c1)CN(Cc1ccccc1F)C(=O)CO2)c1ccc(Cl)cc1` here?
A: inconclusive: 25.1 µM [inhibitor, full curve]

Q: `COCCNC(=O)[C@@H]1C[C@H](Oc2cccnc2)CN1C(=O)c1cc(-c2ccc(C)cc2)n[nH]1` was tested. Which Potency did it give?
A: inconclusive: 50.1 µM [inhibitor, partial curve]

Q: For `O=C(CCc1ccccc1)N1CCCC(c2noc(COc3ccccc3F)n2)C1` (stereo unspecified), which Potency is on record?
A: inconclusive: 50.1 µM [inhibitor, partial curve, poor fit]

Q: Which Potency does the source give for `CCc1ccc(NC(=O)NCC2CCOCC2)cc1` here?
A: inconclusive: 56.2 µM [inhibitor, partial curve]

Q: Which Potency does the source give for `O=C(Cc1ccccc1Cl)N1CCCC(n2cc(-c3nc(-c4ccccc4)no3)nn2)C1` (stereo unspecified) here?
A: inconclusive: 28.2 µM [inhibitor, full curve]

Q: How did the Potency turn out when `Cc1nc(CC(=O)NCc2ccc3[nH]c(-c4ccc(F)cc4)c(C)c3c2)cs1` was run?
A: active: 35.5 µM

Q: How did the Potency turn out when `O=C(CCCc1ccccc1)Nc1ccnn1C1CCN(C(=O)c2ccccc2F)CC1` was run?
A: inconclusive: 50.1 µM [inhibitor, partial curve]

Q: `O=C(NCCCc1ccccc1)C1CCN(C(=O)c2ncn3c2COC(c2ccc(F)cc2)C3)CC1` (stereo unspecified) was tested. Which Potency did it give?
A: inconclusive: 44.7 µM [inhibitor, partial curve]

Q: Which Potency does the source give for `c1ccc2ncc(CNC[C@H]3Cn4c(-c5ccc6c(c5)OCCO6)cnc4CO3)cc2c1` here?
A: inconclusive: 112 µM [inhibitor, partial curve, poor fit]

Q: How did the Potency turn out when `Cc1ccc(C2=NC3(CCN(C(=O)c4sccc4C)CC3)ON2)cc1` was run?
A: inconclusive: 44.7 µM [inhibitor, partial curve]

Q: How did the Potency turn out when `FC(F)(F)Oc1cccc(CN2CCC[C@H]2c2nc(-c3ccc(N4CCOCC4)nc3)no2)c1` was run?
A: inconclusive: 44.7 µM [inhibitor, partial curve, poor fit]

Q: How did the “activity change, negative = inhibition” value turn out when `O=C1NCCOCCN(C(=O)Cc2c[nH]c3ccccc23)[C@H]2CCC[C@@H]12` was run?
A: inactive: -3.86%

Q: How did the “activity change, negative = inhibition” value turn out when `CCS(=O)(=O)N1CC(F)(F)C[C@H]1c1nc(CCOC)no1` was run?
A: inactive: -6.47%

Q: `Cn1ccc(CN2CCC3(C2)NC(=O)c2ccccc2CO3)c1` (stereo unspecified) was tested. Which “activity change, negative = inhibition” value did it give?
A: inactive: 2.34% [at 172 µM]

Q: How did the Potency turn out when `O=C(Nc1cc(F)cc(F)c1)Nc1cccc(-c2ccc(N3CCOCC3)nn2)c1` was run?
A: active: 1.26 µM

Q: With `CC(C)(C)c1ccc(-n2ncc3c2CCCC3NC(=O)Cc2n[nH]c(=O)[nH]2)cc1` (stereo unspecified) as the compound, how does the Potency read?
A: inconclusive: 20 µM [inhibitor, full curve]

Q: Which Potency does the source give for `O=C(Nc1cnc(-c2cccnc2)nc1)C1CCCC1` here?
A: active: 31.6 µM

Q: Which Potency does the source give for `O=C(NCc1ccc2c(c1)OCO2)c1nc(-c2ccsc2)c2ccccn12` here?
A: inconclusive: 39.8 µM [inhibitor, partial curve]

Q: `COc1ccc(-c2nnc([C@H]3CCN(Cc4ccccc4Cl)C3)o2)cc1` was tested. Which Potency did it give?
A: inconclusive: 126 µM [inhibitor, single point]

Q: `COc1cc(F)cc(-c2ncc3c(n2)OCCN(Cc2ccc(F)cc2F)C3=O)c1` was tested. Which “activity change, negative = inhibition” value did it give?
A: inactive: -27.3% [at 172 µM]

Q: How did the Potency turn out when `CCN1c2cc(C(=O)Nc3ccc4c(c3)CCC4)ccc2C(=O)N2CCCCC21` (stereo unspecified) was run?
A: inconclusive: 15.8 µM [inhibitor, full curve]

Q: For `c1ccc(CCc2noc(-c3ccc(N4CCCOCC4)nc3)n2)cc1`, which Potency is on record?
A: active: 31.6 µM

Q: For `C[C@@H](NC(=O)Nc1ccccc1)c1onc(-c2ccc(F)cc2)c1C(=O)O`, which Potency is on record?
A: inconclusive: 79.4 µM [inhibitor, partial curve]

Q: How did the Potency turn out when `CNC(=O)CCn1ncc2cc(OCc3ccccc3-c3ccc(F)cc3F)ccc21` was run?
A: inconclusive: 70.8 µM [inhibitor, full curve]

Q: `Cc1ccc(C(=O)NC2CCCN(c3cc(-c4ccccc4)[nH]n3)C2)cn1` (stereo unspecified) was tested. Which Potency did it give?
A: inconclusive: 44.7 µM [inhibitor, partial curve]

Q: For `COc1ccc(CO[C@H]2COCCN(c3nc4ccccc4s3)C2)cc1`, which Potency is on record?
A: inconclusive: 100 µM [inhibitor, partial curve, poor fit]

Q: How did the Potency turn out when `Cc1ccc(-c2nc(C(=O)NC(C)c3ccccc3)no2)cc1` (stereo unspecified) was run?
A: inconclusive: 44.7 µM [inhibitor, partial curve]

Q: For `CCn1ccnc1CN(C)Cc1cn(Cc2ccccc2)nc1-c1cc2ccccc2o1`, which “activity change, negative = inhibition” value is on record?
A: inactive: -26.1%

Q: `COc1ccc(-c2cc(C[C@@H]3CC[C@H](O)[C@@H](CNCc4ccccc4OC)O3)no2)cc1` was tested. Which Potency did it give?
A: inconclusive: 126 µM [inhibitor, single point]

Q: For `O=C(O)CCC(=O)N[C@H]1CCN2C(=O)c3cc(-c4ccc5c(c4)OCO5)ccc3NC(=O)[C@H]12`, which Potency is on record?
A: inconclusive: 50.1 µM [inhibitor, partial curve]

Q: How did the “activity change, negative = inhibition” value turn out when `O=C(CN1CCCc2nc(-c3ccncc3)ncc2C1=O)NCCCN1CCCC1=O` was run?
A: inactive: -10.1%

Q: With `NC(=O)[C@@H]1CCCN1c1ccc(-c2nc(Cc3ccccc3)no2)cn1` as the compound, how does the Potency read?
A: inconclusive: 44.7 µM [inhibitor, partial curve]

Q: How did the Potency turn out when `CCOc1ccc(NC(=O)Cn2c(C)ccc(NC(=O)Nc3cccc(C)c3)c2=O)cc1` was run?
A: inconclusive: 3.16 µM [inhibitor, full curve, poor fit]

Q: Which Potency does the source give for `Cn1nc(C2CCCN(C(=O)Nc3ccc4c(c3)OCCO4)C2)n(C2CCCC2)c1=O` (stereo unspecified) here?
A: active: 31.6 µM
